# Reference: PubChem BioAssay AID602313 (National Center for Advancing Translational Sciences (NCATS), 2012)
# Hit rate of the full screen: of about 390,000 compounds, about 760 (0.19%) were called active. Another 3% or so got no clear call; they are omitted. The call rests on the fitted dose curve; in most records, active means well fitted inhibition curve with a large enough effect; inconclusive means small, poorly fitted or top-dose-only effect; inactive means flat fitted curve, though single readings scatter. This is a selection; strong and weak results do not stand in their true shares. Some structures have more than one record in an assay (separate samples or runs), and their calls can disagree.
# Test: qHTS for Inhibitors of Vif-A3F Interactions: qHTS; further: nearly all actives have a fitted effect of over 65% in size; on activity, negative = active: % of control where 0% means no effect
# Conditions: HeLa A3F-eYFP + Vif (tagged APOBEC3F with the HIV-1 protein that degrades it), YFP fluorescence increase; series mostly up to 46.1 µM; activity, negative = active: at the top concentration
# Description: The recent discovery and characterization of host restriction factors, which provide a potent defense to invading retroviruses, has provided new targets for antiviral drug development. APOBEC3G (A3G) and APOBEC3F (A3F) are potent cytidine deaminases that block HIV-1 replication; HIV-1 expresses the Vif protein, which counteracts A3G and A3F by binding to them and inducing their proteasomal degradation. The Vif-A3G and Vif-A3F interactions provide two potential targets for development of small molecules which can interfere with the ability of Vif to degrade A3G or A3F. […] To identify inhibitors that can interfere with Vif mediated degradation of A3G and A3F, we have developed Hela cell lines that stably express A3G or A3F tagged with eYFP at the C-terminal end (A3G-eYFP or A3F-eYFP, respectively) and Vif. In the absence of an inhibitor, Vif induces degradation of A3G-eYFP and A3F-eYFP, and the cells are not fluorescent. In the presence of an inhibitor, it is expected that Vif will be unable to degrade A3G-eYFP and/or A3F-eYFP, resulting in an increase in yellow fluorescence. In this assays Vif A3F was screened against the Molecular Library Small Molecule Repository (MLSMR). NIH Chemical Genomics Center [NCGC] NIH Molecular Libraries Probe Centers Network [MLPCN] MLPCN Grant: MH093245 Assay Submitter (PI): Vinay Pathak, National Cancer Institute
# 5 uL of 700 cells/well of A3F-YFP cells are dispensed into black, clear bottom plates. The plates are incubated overnight at 37 deg C. 23 nL of compounds are added by pintool. The plates are incubated overnight at 37 deg C and then read on the TTP Acumen (Ex 488/ Em 500-530).
# Potency means the concentration at half of the fitted maximal effect.
Structure (SMILES),"activity, negative = active",Potency
CCN1CCN(Cc2ccc(NC(=O)c3cc(NC(=O)c4cc5cccc(OC)c5o4)cc(OC)c3)cc2C(F)(F)F)CC1,inactive: -9.58%,
Cc1ccc2c(C)nc(/N=C(\N)NC(=O)N3c4ccccc4Sc4ccccc43)nc2c1,inactive: -11.4%,
O=C(/C=C/c1ccc(-c2cccc([N+](=O)[O-])c2)o1)N1CCOCC1,inactive: 11.3%,
N#Cc1c(NC(=O)/C=C/C(=O)O)sc2c1CCN(Cc1ccccc1)C2,,active: 25.1 µM
CC[C@]12CCCN3CCc4c(n(c5ccccc45)[C@](O)(C(=O)OC)C1)[C@@H]32,inactive: -1.87%,
CCOc1ccc(CCNC(=O)CSc2cc(=O)n(C)c3ccccc23)cc1OCC,inactive: 3.3%,
Cc1cccc(NC(=O)c2cc(S(=O)(=O)N3CCC4(CC3)OCCO4)ccc2F)c1,inactive: 11.9%,
Cn1cccc1/C=C1/SC(=S)N(CC(=O)O)C1=O,inactive: -13%,
CCCCN(C(=O)c1ccc([N+](=O)[O-])s1)c1c(N)n(CCCC)c(=O)[nH]c1=O,,active: 12.6 µM
Cc1nc(SCc2cccc(C(=O)O)c2)nc2c1CCCC2,inactive: 15.1%,
Cc1ccc[n+](-c2nc3ccccc3nc2C(=C=[N-])C#N)c1,inactive: -5.34%,
CC(=O)OC[C@H]1O[C@@H](Sc2cccc3cccnc23)[C@H](OC(C)=O)[C@@H](OC(C)=O)[C@@H]1OC(C)=O,inactive: 1.95%,
CCOc1cccc(NC(=O)/C(C#N)=C/c2cccnc2)c1,inactive: 7.72%,
Cc1cc(C)c(/C=C2\C(=O)Nc3ccccc32)[nH]1,,active: 12.6 µM
Cc1cc(C)n2c(SCC(O)=C(C#N)c3nc4ccccc4[nH]3)nnc2n1,inactive: -28.8%,
COc1cccc(NC(=O)CSc2nc3ccccc3nc2N2CCOCC2)c1,inactive: 0.947%,
Cc1ccc(C)c(NC(=O)N2CC=C(c3c[nH]c4ccccc34)CC2)c1,,active: 25.1 µM
CC(=O)OCC1OC(Sc2cccc3cccnc23)C(OC(C)=O)C(OC(C)=O)C1OC(C)=O (centres undefined),inactive: -1.2%,
Cn1c2ccccc2c(=O)c2c(O)cccc21,inactive: 23.5%,
CCOc1ccc(CCNC(=O)CSc2cc(=O)n(C)c3ccc(Cl)cc23)cc1OCC,inactive: 0.701%,
CCCCn1c(N)c(N(CC(C)C)C(=O)Cc2ccc(S(=O)(=O)N3CCOCC3)s2)c(=O)[nH]c1=O,,active: 25.1 µM
CSc1cccc(NC(=O)c2cc3c(COC(C)=O)cnc(C)c3oc2=O)c1,,active: 10 µM
CCC(C)Sc1ccc(-c2nc3cc(C)ccn3c2NC2CCCCC2)cc1 (centres undefined),,active: 11.2 µM
COc1ccc(-n2nc3c(N4CCC(C(=O)N5CCC(C)CC5)CC4)nnc(C)c3c2C)cc1,inactive: -7.16%,

Structure (SMILES),"activity, negative = active",Potency
Cc1cc(/C=C2/NC(=O)NC2=O)c(C)n1-c1ccc(N2CCOCC2)cc1,inactive: -14.2%,
CCOC(=O)c1c(-c2ccc(OC)cc2)csc1/N=C/C1=C(O)CCCC1=O,,active: 22.4 µM
C=CC[C@@H](CC(=O)N[C@H](CO)Cc1ccccc1)C(=O)N[C@H](COC(=O)[C@@H](CC=C)CC(=O)OC(C)(C)C)Cc1ccccc1,inactive: 2.88%,
COc1ccc(/C=C(/NC(=O)c2ccccc2Cl)C(=O)NCCCC(=O)O)cc1,inactive: -10.6%,
O=C(C[C@H]1C/C=C\CC[C@@H](Cc2ccc(F)cc2)C(=O)O[C@H](c2ccccc2)CNC1=O)N[C@H](CO)Cc1ccccc1,inactive: -5.99%,
C/C(Sc1nnc(Cc2ccccc2)o1)=C(/O)c1ccccc1,inactive: -9.86%,
O=C1NN(c2ccccc2)C(=O)C1=Cc1ccccc1,inactive: 4.27%,
S=C(Nc1cccc2ccccc12)NN1CCCCCC1,,active: 22.4 µM
CCc1cc2c(=O)c(-c3nc4ccccc4[nH]3)coc2cc1OC(=O)N1CCOCC1,inactive: -2.38%,
COc1ccc(-c2cc(C)no2)cc1S(=O)(=O)N1CCOc2ccccc21,inactive: 6.69%,
COc1cccc2c1cc1c(=O)n(CC(=O)N3CCN(c4cccc(C)c4C)CC3)nc(C)n12,inactive: 1.77%,
O=C(Nc1cccc(C(F)(F)F)c1)/C(=C/c1ccco1)NC(=O)c1cccs1,inactive: -17.9%,
CCN1C(=O)/C(=C/c2ccc(N3CCCC3)cc2)NC1=S,,active: 25.1 µM
CC12CCC(C(=O)Nc3ccccc3Cl)(C(Br)C1=O)C2(C)C (centres undefined),inactive: -17.7%,
Cc1ccccc1NC(=O)Cn1nnc(C(=O)NCc2ccco2)c1N,inactive: -0.739%,
CN1CCS/C1=C\C=C1/SC(=S)N(CC(=O)O)C1=O,inactive: -13%,
CCC1CCCCN1CCCNC(=O)c1cc2c(Cl)nc3ccccc3c2s1 (centres undefined),inactive: -13.2%,
O=C(Cc1cccs1)N/N=C/C=C/c1ccco1,inactive: -11.1%,
O=C(CCN1C(=O)/C(=C\c2ccccc2)SC1=S)NCCCN1CCOCC1,inactive: -0.715%,
Cc1ccc(S(=O)(=O)Nc2c(C)n(C)n(-c3ccccc3)c2=O)cc1,inactive: -7.5%,
O=C(C[C@H]1C/C=C\CC[C@H](Cc2ccc(F)cc2)C(=O)O[C@H](c2ccccc2)CNC1=O)N[C@H](CO)Cc1ccccc1,inactive: -10.9%,
Cc1ccc2c(Cl)c(C)c(N3CCOCC3)nc2n1,inactive: 23.8%,
C=CC[n+]1c(C)csc1Nc1ccc(C(=O)O)cc1,inactive: 2.08%,
Nc1ccc(S(=O)(=O)O)cn1,,inactive

Structure (SMILES),"activity, negative = active",Potency
CCOc1ccc(NC(=O)CSc2nc3ccsc3c(=O)n2CCCCCC(=O)O)cc1,inactive: -4.82%,
O=C(C[C@H]1C/C=C\CC[C@H](Cc2ccc(F)cc2)C(=O)O[C@@H](c2ccccc2)CNC1=O)N[C@@H](CO)Cc1ccccc1,inactive: -12.4%,
CCOc1c(Cl)cc(CNCc2ccccn2)cc1OC,inactive: 3.85%,
COc1cc(CNc2ccc3[nH]c(=O)[nH]c3c2)cc(Br)c1OCc1ccccc1F,inactive: -11.7%,
CCOc1ccccc1C1CC(c2cccs2)=NN1S(C)(=O)=O (centres undefined),,active: 31.6 µM
Cc1cccc(C(=O)NC(=S)N2CCc3ccccc3C2)c1,,active: 8.91 µM
C/C(=N/Nc1ccc([N+](=O)[O-])cc1)c1c[nH]c2ccccc12,,active: 6.31 µM
CCSc1nnc(-c2sc3nnc(-c4ccccc4)c(-c4ccccc4)c3c2N)o1,,active: 12.6 µM
CCC(=O)/C=C1\Sc2ccc(OC)cc2N1CCO,inactive: -0.593%,
Cc1nn(-c2ccccc2)c(C)c1C(=O)OC/C(O)=C(\C#N)c1nc2ccccc2[nH]1,inactive: 0.993%,
CCOC(=O)/C(=N/Nc1ccc(Br)cc1)N1CC(C)OC(C)C1 (centres undefined),inactive: -14.6%,
Cc1ccccc1NC(=O)/C=C/c1ccc([N+](=O)[O-])s1,,active: 10 µM
O=C(C[C@H]1C/C=C\CC[C@@H](Cc2ccc(F)cc2)C(=O)O[C@@H](c2ccccc2)CNC1=O)N[C@@H](CO)Cc1ccccc1,inactive: -4.08%,
Cc1noc(C)c1NC(=O)N(C)C[C@H]1Oc2c(NC(=O)c3ccncc3)cccc2C(=O)N([C@H](C)CO)C[C@@H]1C,inactive: -25.2%,
S=C(NC1CCCCC1)N(CCc1ccccc1)CCc1ccccc1,,active: 7.08 µM
Cc1ccc(NC(=O)C(Cc2ccccc2)n2cccc2)cc1 (centres undefined),inactive: 0.361%,
CN(/C=C/C(=C\C=[N+](C)c1ccccc1)OCCCS(=O)(=O)[O-])c1ccccc1,inactive: -21.3%,
Cc1ccc(S(=O)(=O)NCCc2nnc3ccc(SCc4cccnc4)nn23)cc1,inactive: 32.3%,
CN(C)c1ccc2nc3c(=O)[nH]c(=O)nc-3n(CC(O)C(O)C(O)CO)c2c1 (centres undefined),,active: 8.91 µM
CCN(CC)C(=O)C1c2ccccc2Oc2ccccc21,inactive: 30.7%,
Clc1ccccc1C1CC(c2ccccc2)=Nc2ccccc2N1 (centres undefined),,active: 20 µM
COc1ccc(NC(=O)c2ccco2)cc1NC(=O)c1c(OC)cccc1OC,inactive: 3.06%,
COc1ccccc1/C=C/C=N/n1c(-c2ccc(Cl)cc2)n[nH]c1=S,inactive: -6.76%,
CCC(C)Sc1ccc([C@@H]2[C@@H]3C(=O)N(CC)C(=O)[C@@H]3[C@]3(C(=O)OC)CCCCN23)cc1 (some centres undefined),inactive: -24.9%,

Structure (SMILES),"activity, negative = active",Potency
CC(C)(C)c1ccc(S(=O)(=O)N(CCCN2CCOCC2)Cc2cccs2)cc1,inactive: -12.1%,
Cc1c(C(=O)N(Cc2ccc(N(C)C)cc2)C2CCS(=O)(=O)C2)oc2ccccc12 (centres undefined),inactive: 2.4%,
Oc1cc2c(cc1O)[C@H]1c3ccc(O)c(O)c3OC[C@@]1(O)C2,inactive: -20.9%,
CCCNC(=O)Cn1c(=O)/c(=C\c2ccc(-c3cccc([N+](=O)[O-])c3)o2)s/c1=C\C(=O)C(C)(C)C,inactive: -7.88%,
COc1ccc(-c2ccnc3[nH]n(-c4ccccc4)c(=O)c23)cc1,inactive: -4.53%,
CC(=O)C1=C(C)NC(SCC(=O)c2ccc(Cl)cc2)=C(C#N)C1c1ccco1 (centres undefined),,active: 25.1 µM
CCCN(CCC)CCNC(=O)c1cc2c(-c3ccc(Cl)cc3)nn(C)c2s1,inactive: 0.565%,
CCCCC(=O)N(CCOC)c1nnc(-c2ccccc2C)s1,inactive: 30.5%,
COc1cc(/C=C2\SC(=S)N(CC(=O)O)C2=O)ccc1OC(=O)c1ccco1,inactive: -36.2%,
CCN=c1scc(-c2ccc3c(c2)NC(=O)CO3)n1N=C1CCCC1,inactive: -2.62%,
C=CC[C@@H](CC(=O)N[C@H](CO)Cc1ccccc1)C(=O)N[C@@H](COC(=O)[C@@H](CC=C)CC(=O)OC(C)(C)C)Cc1ccccc1,inactive: 9.22%,
CCN(CC)C(=O)Cn1c(=O)n(-c2ccccc2)c(=O)c2c3c(sc21)CCC3,inactive: 6.02%,
Nc1c2ccccc2nc2ccccc12,inactive: -2.71%,
Cc1ccc(-c2nc3ncccn3c2Nc2ccc3c(c2)OCCO3)cc1,inactive: 5.37%,
O=C(Nc1ccc(Oc2ccc(NC(=O)Nc3ccccc3Cl)cc2)cc1)Nc1ccccc1Cl,,active: 11.2 µM
CC(=O)NCCNC(=O)c1ccc(CSc2ccc(Cl)cc2)cc1,inactive: 27.9%,
CCc1ccc(NC(=O)Cn2c(=O)c3cccn3c3ccccc32)cc1,inactive: -21.6%,
Cc1ccc(-c2ccc(/C=N/NC(N)=S)o2)cc1,,active: 5.62 µM
N#C/C(=C\c1ccc(N2CCOCC2)o1)C(=O)N1CCOCC1,inactive: -24.5%,
COC(=O)C1=CO[C@@H](C)[C@H]2CN3CCc4c([nH]c5ccccc45)[C@@H]3C[C@H]12,inactive: -0.534%,
CC1=NN(c2ccccc2)C(=O)/C1=C\C=C\c1ccccc1,inactive: 0.397%,
CCc1ccc2oc(C(=O)NCC(c3ccc(OC)cc3)N3CCCCC3)c(C)c2c1 (centres undefined),inactive: -12.1%,
